Results reported in the supplement of paper PMC4967469.
By IC50 is meant the dose at which the fit gives 50% viability; a limit (>, <) means that the fit lies beyond the doses tested. The AUC spans the tested range (256-fold, ending at the top dose) of the same fit: 1 means no effect, lower means more sensitive. For part of these data: Any top dose called inferred is not printed in the source and was worked back from the curve model. For part of these data: Drugs with an entry number were screened twice under separate entries, and the two screens often disagree.

How the values were obtained:
Assay in all cases: Viability of human cancer cell lines after 72 h of drug (GDSC screen)
PD-0332991 = compound: CC(=O)c1c(C)c2cnc(Nc3ccc(N4CCNCC4)cn3)nc2n(C2CCCC2)c1=O [PD-0332991]
Protocol: (§1)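 Human cancer cell lines in 384-well plates, medium with 10% serum, drug for 72 h over a 256-fold dose range (nine 2-fold or five 4-fold steps up to the top dose). Adherent lines were fixed and stained with the nucleic acid dye Syto60, suspension lines read with resazurin; signal relative to control wells, capped at 0 and 100%. One two-parameter sigmoid per drug and line, fitted in a mixed model over all curves with the slope shared within a line.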

ZM-447439 = compound: COc1cc2c(Nc3ccc(NC(=O)c4ccccc4)cc3)ncnc2cc1OCCCN1CCOCC1 [ZM-447439]; settings: top dose inferred
Protocol: as §1

AZD6244 = compound: Cn1cnc2c(F)c(Nc3ccc(Br)cc3Cl)c(C(=O)NOCCO)cc21 [AZD6244]; settings: screen: GDSC drug entry 1062
Protocol: as §1

Cell Line	AUC (PD-0332991)	IC50 (PD-0332991)	AUC (ZM-447439)	IC50 (ZM-447439)	AUC (AZD6244)	IC50 (AZD6244)
LB771-HNC (head and neck, adherent, top dose 4 µM)	0.945	> 4 µM	0.947	> 4 µM	0.968	> 4 µM
LB831-BLC (bladder, adherent, top dose 4 µM)	0.987	> 4 µM	0.959	> 4 µM	0.987	> 4 µM
LB996-RCC (kidney, adherent, top dose 2 µM)	0.943	> 2 µM	0.918	> 2 µM	0.88	> 2 µM
LB2518-MEL (melanoma, adherent, top dose 4 µM)	0.953	> 4 µM	0.974	> 4 µM	0.385	0.118 µM
LC4-1 (lymphoblastic leukaemia, suspension, top dose 4 µM)	0.965	> 4 µM	0.942	> 4 µM	0.981	> 4 µM
LC-2-ad (lung adenocarcinoma, adherent, top dose 2 µM)	0.891	> 2 µM	0.884	> 2 µM	0.975	> 2 µM
LCLC-97TM1 (large cell lung carcinoma, adherent, top dose 4 µM)	0.778	1.78 µM	0.796	2.09 µM	0.644	0.652 µM
LK-2 (lung squamous cell carcinoma, adherent, top dose 4 µM)	0.977	> 4 µM	0.752	1.26 µM	0.989	> 4 µM
LN-18 (glioma, adherent, top dose 4 µM)	0.886	2.95 µM	0.928	> 4 µM	0.994	> 4 µM
LN-405 (glioma, adherent, top dose 4 µM)	0.971	> 4 µM	0.948	> 4 µM	0.924	> 4 µM
LNCaP-Clone-FGC (prostate, adherent, top dose 4 µM)	0.89	> 4 µM	0.959	> 4 µM	0.984	> 4 µM
LNZTA3WT4 (glioma, adherent, top dose 4 µM)	0.925	> 4 µM	0.981	> 4 µM	0.986	> 4 µM
LOU-NH91 (lung squamous cell carcinoma, adherent, top dose 4 µM)	0.921	> 4 µM	0.958	> 4 µM	0.982	> 4 µM
LOUCY (T-cell lymphoblastic leukaemia, suspension, top dose 4 µM)	0.796	1.49 µM	0.815	1.71 µM	0.89	3.12 µM
LOXIMVI (melanoma, semi-adherent, top dose 4 µM)	0.78	1.46 µM	0.883	3.47 µM	0.663	0.67 µM
LP-1 (myeloma, suspension, top dose 4 µM)	0.993	> 4 µM	0.992	> 4 µM	0.991	> 4 µM
LS-180 (large intestine, adherent, top dose 4 µM)	0.806	2.39 µM	0.852	3.8 µM	0.714	1.11 µM
LS-411N (large intestine, adherent, top dose 4 µM)	0.968	> 4 µM	0.977	> 4 µM	0.805	2.55 µM
LS-513 (large intestine, adherent, top dose 4 µM)	0.727	1.14 µM	0.88	> 4 µM	0.987	> 4 µM
LS-1034 (large intestine, adherent, top dose 4 µM)	0.984	> 4 µM	0.925	> 4 µM	0.881	> 4 µM
LU-134-A (small cell lung carcinoma, suspension, top dose 4 µM)	0.987	> 4 µM	0.887	> 4 µM	0.987	> 4 µM
LU-135 (small cell lung carcinoma, suspension, top dose 4 µM)	0.976	> 4 µM	0.661	0.642 µM	0.992	> 4 µM
LU-139 (small cell lung carcinoma, suspension, top dose 4 µM)	0.877	> 4 µM	0.834	3.7 µM	0.851	> 4 µM
LU-165 (small cell lung carcinoma, suspension, top dose 4 µM)	0.988	> 4 µM	0.988	> 4 µM	0.988	> 4 µM
